Molecular target: T1, human prolactin receptor mutant I146L (human, UniProt P16471 25-622)
T1 sequence: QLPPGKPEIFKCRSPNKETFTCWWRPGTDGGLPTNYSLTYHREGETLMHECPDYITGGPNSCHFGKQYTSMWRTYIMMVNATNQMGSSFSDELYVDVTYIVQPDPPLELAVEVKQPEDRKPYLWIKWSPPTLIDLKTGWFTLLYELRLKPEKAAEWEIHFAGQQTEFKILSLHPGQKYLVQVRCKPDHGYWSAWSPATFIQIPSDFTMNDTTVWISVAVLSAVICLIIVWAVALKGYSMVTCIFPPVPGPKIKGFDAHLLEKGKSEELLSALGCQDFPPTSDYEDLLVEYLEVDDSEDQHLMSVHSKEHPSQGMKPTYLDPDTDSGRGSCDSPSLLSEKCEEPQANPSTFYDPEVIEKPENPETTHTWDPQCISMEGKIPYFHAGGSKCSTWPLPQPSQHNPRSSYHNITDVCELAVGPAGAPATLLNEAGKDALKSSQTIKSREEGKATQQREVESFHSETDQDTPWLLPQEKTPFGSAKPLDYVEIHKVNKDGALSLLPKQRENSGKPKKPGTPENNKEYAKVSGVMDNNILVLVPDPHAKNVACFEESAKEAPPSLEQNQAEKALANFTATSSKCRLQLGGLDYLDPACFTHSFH
Test: cell-based or functional assay

B1: recombinant human prolactin (hPRL) (ligand, UniProt P01236 29-227, looked up)
chain: LPICPGGAARCQVTLRDLFDRAVVLSHYIHNLSSEMFSEFDKRYTHGRGFITKAINSCHTSSLATPEDKEQAQQMNQKDFLSLIVSILRSWNEPLYHLVTEVRGMQEAPEAILSKAVEIEEQTKRLLEGMELIVSQVHPETKENEIYPVWSGLPSLQMADEESRLSAYYNLLHCLRRDSHKIDNYLKLLKCRIIHNNNC
modifications: tracer form iodinated (125I, Iodogen method); unlabeled hPRL used as competitor
notes: Recombinant hPRL from bacteria; also called WT hPRL; [125I]-hPRL
fold stimulation of LHRE-luciferase activity induced by PRL (stable HEK 293 clones, 1 ug/ml PRL): 4 fold
